Measurements published in patent EP0081756A1, “New compounds with antiinflammatory and antitussive activity, process for their preparation and relative pharmaceutical compositions” (MEDEA RESEARCH S.r.l., priority 1981, dated 1983).

System: cough with an aerosol administration of citric acid
Test: Antitussive activity, cough induced by citric acid aerosol (method of Boura)
Details: rabbit, 50 mg/kg i.p. immediately before citric acid aerosol, cough strokes counted for 10 minutes

| SMILES | % INHIBITION OF COUGH STROKES IN COMPARISON WITH BASAL VALUES [%] |
| --- | --- |
| COc1ccc2c3c1O[C@H]1[C@@H](O)C=C[C@H]4[C@@H](C2)N(C)CC[C@@]341 [CODEINE, codeine, reference compound] | 79.5 |
| Cc1cccnc1NC(=O)C1(c2ccccc2)CCCC1 [MR 549, 2-[(1-phenyl)cyclopentyl-carbonyl]-amino-3-methylpyridine] | 63.5 |
